# Results published in the supplement of paper PMC7335073.
# In all, about 4,100 sequences were measured (“relative CpG methylation activity (normalised to average over all NNNCGNNN flanks)”: median about 0.94, highest 2% from about 1.9 on). The list shows a part of the results.
# Biological target: DNMT3B catalytic domain (mouse) (UniProt O88509)
# Assay: relative CpG methylation activity (normalised to average over all NNNCGNNN flanks) (relative (1 = mean)); higher = more methylation of the central CpG
# Settings: system: in vitro, murine catalytic domain; CpG state: hemimethylated substrate pool; residues: 558-859
# Protocol: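 Deep enzymology: a pool of dsDNA substrates with a central CpG flanked by 10 random nucleotides on each side was methylated by the murine DNMT3A or DNMT3B catalytic domain (0.8 mM SAM, 37 °C, 60 min). Methylation was then read out by hairpin ligation, bisulfite conversion and NGS. Values are the average methylation of each NNNCGNNN context (±3 flanks; the outer flanks are random and averaged over), normalised to the overall mean, so 1 = average activity.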
# Chain of UniProt O88509 (O88509 558-859): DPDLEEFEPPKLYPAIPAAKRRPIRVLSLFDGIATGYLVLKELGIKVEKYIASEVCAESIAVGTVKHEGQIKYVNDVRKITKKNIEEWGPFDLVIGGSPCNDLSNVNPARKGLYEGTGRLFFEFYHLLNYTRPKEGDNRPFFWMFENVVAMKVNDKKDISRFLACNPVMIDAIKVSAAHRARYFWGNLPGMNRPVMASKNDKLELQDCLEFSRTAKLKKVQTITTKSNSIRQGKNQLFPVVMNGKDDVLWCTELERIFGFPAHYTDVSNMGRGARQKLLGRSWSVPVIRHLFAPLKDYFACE
row,Sequence,relative CpG methylation activity
1,CAACGTGT,0.579
2,TGACGCGA,0.69
3,GCACGGTA,1.26
4,GCCCGCAC,0.864
5,GTCCGAAT,1.46
6,ACTCGGAG,0.713
7,GCCCGGAC,1.05
8,ACTCGCTA,0.804
9,TATCGAAG,1.09
10,AACCGTTC,0.501
11,AGTCGAAT,1.38
12,ATACGAAC,1.89
13,CATCGAAC,1.6
14,GTACGTAT,1.14
15,ACGCGATC,1.25
16,GTCCGAAG,1.08
17,TAGCGCTC,0.768
18,CCCCGAAA,1.45
19,AATCGTCG,0.465
20,ACACGCCT,1.47
21,GGCCGAGC,1.53
22,CCCCGAGA,1.68
23,TTACGGTG,1.52
24,CTTCGCGG,1.18
25,GCCCGACA,1.39

row,Sequence,relative CpG methylation activity
1,AACCGATG,0.997
2,ACTCGTAC,1.09
3,GCGCGCCG,0.924
4,CCCCGATA,1.57
5,ATCCGATC,1.48
6,ATCCGCCA,0.876
7,CGCCGTTA,0.216
8,CGTCGTCT,0.592
9,CAGCGCCC,1.01
10,GTCCGCAG,0.521
11,CTCCGTTC,1.22
12,GAACGAAG,1.23
13,ATCCGCGG,0.648
14,CTTCGCAG,0.611
15,AATCGAGT,1.64
16,TTTCGTGG,0.36
17,GATCGCAC,0.67
18,TTGCGGCG,1.66
19,CGCCGGGT,0.899
20,CGTCGATA,1.84
21,CGCCGGAG,0.167
22,CTTCGGTC,1.47
23,GGCCGTTG,0.0342
24,TCACGCTG,1.17
25,ACGCGTTG,0.312

row,Sequence,relative CpG methylation activity
1,ATCCGGCT,1.8
2,TAACGATC,1.83
3,CATCGACC,1.6
4,GCACGTTA,0.752
5,CGTCGTAA,0.361
6,GTTCGGTG,1.46
7,CGACGTTG,0.363
8,CAGCGTCG,0.906
9,ACACGAAG,1.24
10,GAACGCTT,1.15
11,ATACGAGG,1.72
12,AGCCGCGA,0.139
13,GGACGATA,1.24
14,CGTCGCGC,0.747
15,ACTCGCCG,0.707
16,TAGCGGCG,0.863
17,ACCCGGGT,1.29
18,TAACGGAA,1.18
19,AAACGCCC,1.42
20,TCTCGGGA,1.11
21,TGTCGGGG,1.21
22,TAGCGGCT,1.24
23,TGACGCCT,1.11
24,CGCCGCGC,0.355
25,TATCGCAA,0.42

row,Sequence,relative CpG methylation activity
1,GCGCGCCA,0.631
2,CCTCGCAA,0.594
3,ACTCGATC,1.62
4,ACTCGGGT,1.11
5,CTCCGGAG,1.54
6,GAACGAGG,1.03
7,AGCCGCTC,0.441
8,TAGCGGTC,1.12
9,AGCCGCTG,0.34
10,ACCCGTGA,0.269
11,ATTCGACT,1.43
12,TTGCGATA,1.44
13,ACTCGAGC,1.74
14,TAGCGTTA,0.445
15,GATCGCCT,0.763
16,CCCCGAAC,1.48
17,TGTCGCCC,0.734
18,ACACGGGG,1.39
19,GGACGACA,0.966
20,GTGCGCCG,1.1
21,CCGCGGAC,1.06
22,TCTCGATC,1.65
23,GTTCGATT,1.32
24,ACTCGTGT,0.208
25,AATCGGGT,1.35

row,Sequence,relative CpG methylation activity
1,CGCCGGCG,1.48
2,GTTCGCAA,0.436
3,CTGCGGCC,1.22
4,CTGCGGGC,1.53
5,GCTCGCTG,0.49
6,TGTCGGTT,1.27
7,AAGCGGAT,0.521
8,GTTCGGCA,1.88
9,TTACGAGT,1.74
10,TCCCGCAT,0.586
11,TCTCGAAT,1.29
12,AACCGCGA,0.144
13,AGACGTAA,0.499
14,AACCGAAG,0.648
15,CATCGCCC,1.16
16,CCACGCAT,0.811
17,GCTCGGGA,1.17
18,TGACGACG,1
19,CCACGATA,1.7
20,AGACGATT,1.57
21,GCGCGACC,0.868
22,GGTCGCTG,0.526
23,ATACGTCG,1.35
24,CCGCGGAG,0.533
25,CTCCGCGG,1.01

row,Sequence,relative CpG methylation activity
1,AAACGGCA,1.91
2,GATCGACA,1.09
3,ATTCGCTC,1.05
4,TGACGGCG,1.63
5,CTGCGACG,1.2
6,GTACGCCG,1.56
7,ATTCGTAC,1.14
8,TCCCGAGC,2.01
9,GTGCGTGG,0.694
10,AGCCGCAT,0.147
11,TTTCGACA,1.5
12,TCGCGCTA,0.593
13,CGCCGTCG,0.279
14,CATCGGTC,1.63
15,TCCCGATC,1.71
16,TATCGAAA,1.23
17,GCTCGCAC,0.632
18,TATCGACG,1.28
19,TCACGAGC,1.65
20,GAACGACG,1.07
21,CTCCGAAG,1.4
22,AATCGTGG,0.186
23,AGACGACG,1.02
24,GGTCGGGC,1.65
25,TATCGCTG,0.608

row,Sequence,relative CpG methylation activity
1,ATACGGGC,1.93
2,TACCGCCG,0.618
3,AAACGTAT,0.956
4,AGGCGGCC,0.708
5,GAGCGCGC,0.865
6,TTCCGCCG,1.36
7,CTCCGCTT,1.09
8,GCTCGAGC,1.34
9,ACCCGGCG,1.53
10,ACGCGAAT,0.868
11,GAGCGGGG,0.694
12,AGTCGGTG,0.863
13,TTGCGTCC,1.16
14,GGACGATG,1.08
15,TGGCGACG,0.659
16,CCCCGCCA,0.894
17,AGGCGTCG,0.311
18,TGTCGCTT,0.573
19,AATCGGAC,1.01
20,CAGCGGCA,1.1
21,GTGCGAAC,1.32
22,CCCCGTGC,1.1
23,CAACGCGA,0.965
24,GAACGAGA,1.76
25,AAACGTCA,0.985

row,Sequence,relative CpG methylation activity
1,ATTCGGTC,1.55
2,GCCCGCGT,0.48
3,TTGCGGCA,1.7
4,CCACGACA,1.48
5,ACGCGGCA,1.35
6,TAACGGAG,0.992
7,GAGCGGTT,0.833
8,TCACGCAT,0.823
9,CCGCGAGT,1.14
10,TTACGGGA,1.92
11,ACACGTAT,0.757
12,CATCGGCT,1.78
13,TAGCGGTA,0.636
14,TGCCGTGT,0.151
15,AGACGCTT,1.15
16,ACGCGGCG,1.29
17,GGTCGCGC,0.733
18,CCGCGATT,1.01
19,TGACGTCA,0.54
20,TGTCGATG,1.3
21,AGTCGCCA,0.76
22,CATCGTCG,0.688
23,TCTCGCCT,0.899
24,CTACGTCG,1.37
25,ATACGTAG,0.881

row,Sequence,relative CpG methylation activity
1,TCTCGTAA,0.489
2,AAACGTAC,1.14
3,ATGCGTAT,0.627
4,TGTCGGAT,0.902
5,GCCCGAAT,1.3
6,GGTCGAAG,0.845
7,CTTCGTAC,1.16
8,AAACGTAG,0.869
9,ACCCGCCT,0.833
10,ATCCGTTA,0.67
11,GAACGCAC,1.11
12,GTACGCGA,1.14
13,AAACGGGG,1.56
14,CTACGCAG,0.984
15,AGCCGCGG,0.144
16,ATTCGACA,1.51
17,GGACGAGT,1.33
18,GGCCGGTG,0.833
19,TGACGTAA,0.541
20,TACCGGAT,0.685
21,ACGCGGAG,0.383
22,GCGCGCCC,0.929
23,GTGCGGCA,1.66
24,AAGCGACT,0.72
25,AAACGGGT,1.45

row,Sequence,relative CpG methylation activity
1,CATCGCAT,0.619
2,CACCGCCC,0.68
3,ACACGGAT,1.11
4,ATACGAAG,1.39
5,GACCGCCC,0.598
6,CAGCGCTG,0.635
7,AGACGAAT,1.31
8,GCTCGTCG,0.591
9,CGCCGGCT,1.19
10,GCGCGGTT,0.895
11,GGTCGAGT,1.27
12,TGCCGGTG,0.867
13,GTCCGCGA,0.483
14,GGTCGATT,1.49
15,GGACGGCA,1.53
16,CTACGCCT,1.59
17,TTGCGGTT,0.825
18,ATTCGTCG,0.579
19,TGTCGTGT,0.413
20,GAGCGGTA,0.881
21,CTTCGTCC,1.6
22,AAACGGCC,1.76
23,CTTCGCGT,1.08
24,TTGCGCAA,0.608
25,TTCCGCAA,0.884

row,Sequence,relative CpG methylation activity
1,AGGCGCAA,0.224
2,ATCCGAAG,1.04
3,TCCCGTGC,0.849
4,GTACGCCT,1.73
5,CTTCGACC,1.71
6,CTCCGGAT,1.23
7,CAGCGCTT,0.781
8,TTTCGTGT,0.347
9,GTGCGGGC,1.54
10,ATGCGCCT,1.15
11,GTTCGACG,1.54
12,CAACGGGG,1.39
13,AAACGCCG,1.33
14,CGCCGTAT,0.231
15,GTACGACC,1.61
16,GGACGTTA,0.659
17,AGACGTGC,0.61
18,GGGCGCTA,0.452
19,AATCGTTC,0.607
20,TCCCGCCG,0.883
21,ACCCGCGA,0.371
22,AGGCGGCA,0.883
23,TCGCGCAA,0.463
24,GATCGCGT,0.655
25,ATCCGTAA,0.483

row,Sequence,relative CpG methylation activity
1,GGCCGTGT,0.365
2,GCACGGCG,1.62
3,GGACGGCG,1.53
4,ATACGTTA,0.816
5,CCTCGTGC,0.665
6,CCTCGGAA,0.952
7,ATCCGGAA,1.02
8,TACCGTAA,0.238
9,GCGCGGCA,1.52
10,TTCCGGGC,1.7
11,TTTCGAGG,1.47
12,GTCCGCAA,0.669
13,TCCCGGCT,1.95
14,TTACGATA,1.94
15,GTTCGTCG,0.627
16,GTCCGGCT,1.82
17,CTCCGCCT,1.22
18,GGACGGAG,0.502
19,CACCGCGC,0.452
20,CATCGTCC,0.944
21,AGGCGATC,1.05
22,TATCGTTG,0.446
23,TTTCGTCG,0.861
24,TCCCGCGT,0.535
25,GGGCGGCA,1.31

row,Sequence,relative CpG methylation activity
1,TTGCGCGG,0.775
2,ATGCGCCG,1.04
3,TCACGATG,1.47
4,TCGCGGTA,1.02
5,ATGCGCTC,0.975
6,CAGCGTTA,0.542
7,AGTCGGGG,1.15
8,ACGCGGGG,0.967
9,CGACGAGC,1.5
10,TGACGGTA,0.873
11,CGACGCGG,0.826
12,AGACGCTC,1.25
13,CTCCGGCT,1.84
14,GATCGGTG,1.14
15,CCTCGCTA,0.769
16,ACCCGTTA,0.355
17,AAGCGCTG,0.58
18,TCGCGACC,0.905
19,AGTCGGGA,1.53
20,AATCGGTC,1.53
21,TACCGGGG,0.804
22,TGACGCTA,0.63
23,ACCCGTCC,1.09
24,CCTCGATC,1.57
25,AAGCGCGC,0.503

row,Sequence,relative CpG methylation activity
1,TCGCGAGC,1.28
2,ACGCGCTG,0.784
3,CCACGGTA,1.37
4,AAACGTTT,0.761
5,TCCCGGTT,1.35
6,CTACGAGT,1.96
7,CATCGAAA,1.69
8,ACTCGATA,1.57
9,TTCCGCCA,1.2
10,CTACGTCA,1.82
11,CGCCGAAG,0.934
12,ACTCGCGA,0.391
13,CTACGGAG,1.52
14,CTCCGATT,1.69
15,ATGCGCCC,1.01
16,GCGCGCTC,0.774
17,ATGCGTGA,0.463
18,CGCCGTAA,0.156
19,TCACGAAT,1.39
